From patent publication US6426205 (MOUNT SINAI HOSPITAL, dated 2002) come the findings set out here.

The target of assay [1] is T1, Cdc53-Y48W, M49E^MYC6 (Saccharomyces cerevisiae, UniProt Q12018 1-815).
T1 construct: also called mutant Cdc53; pMT1939-1943
T1 sequence: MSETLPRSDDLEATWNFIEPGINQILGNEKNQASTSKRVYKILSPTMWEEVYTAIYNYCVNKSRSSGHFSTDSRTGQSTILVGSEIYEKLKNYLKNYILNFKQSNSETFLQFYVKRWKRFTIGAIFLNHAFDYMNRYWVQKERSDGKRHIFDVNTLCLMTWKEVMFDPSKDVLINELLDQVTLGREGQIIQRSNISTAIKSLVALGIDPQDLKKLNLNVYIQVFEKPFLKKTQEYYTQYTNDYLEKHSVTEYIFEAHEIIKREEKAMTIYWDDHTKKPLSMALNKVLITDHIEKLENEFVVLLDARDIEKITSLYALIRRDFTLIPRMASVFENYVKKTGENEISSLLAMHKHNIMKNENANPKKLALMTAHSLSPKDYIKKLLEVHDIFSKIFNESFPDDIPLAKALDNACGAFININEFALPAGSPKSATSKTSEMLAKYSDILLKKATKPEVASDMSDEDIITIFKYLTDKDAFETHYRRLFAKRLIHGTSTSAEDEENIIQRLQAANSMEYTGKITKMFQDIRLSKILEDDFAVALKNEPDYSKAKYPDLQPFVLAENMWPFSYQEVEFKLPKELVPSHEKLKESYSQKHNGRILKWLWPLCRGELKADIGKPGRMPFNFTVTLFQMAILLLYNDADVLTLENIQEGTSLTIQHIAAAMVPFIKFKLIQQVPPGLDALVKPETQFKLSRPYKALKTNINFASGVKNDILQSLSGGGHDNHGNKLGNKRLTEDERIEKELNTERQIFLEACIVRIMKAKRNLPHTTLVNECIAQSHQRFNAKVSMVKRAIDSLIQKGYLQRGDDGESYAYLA
The assay is described as follows: anti-MYC immunoprecipitation from yeast lysate, western blot.

Assay [2] has as its target T2, MYC-tagged Cdc53 (Saccharomyces cerevisiae, UniProt Q12018 1-815).
T2 construct: Expressed from the wild type promoter on a CEN plasmid in yeast and immunoprecipitated with 9E10 anti-MYC; also called Cdc53^M; Cdc53^MYC6
T2 sequence: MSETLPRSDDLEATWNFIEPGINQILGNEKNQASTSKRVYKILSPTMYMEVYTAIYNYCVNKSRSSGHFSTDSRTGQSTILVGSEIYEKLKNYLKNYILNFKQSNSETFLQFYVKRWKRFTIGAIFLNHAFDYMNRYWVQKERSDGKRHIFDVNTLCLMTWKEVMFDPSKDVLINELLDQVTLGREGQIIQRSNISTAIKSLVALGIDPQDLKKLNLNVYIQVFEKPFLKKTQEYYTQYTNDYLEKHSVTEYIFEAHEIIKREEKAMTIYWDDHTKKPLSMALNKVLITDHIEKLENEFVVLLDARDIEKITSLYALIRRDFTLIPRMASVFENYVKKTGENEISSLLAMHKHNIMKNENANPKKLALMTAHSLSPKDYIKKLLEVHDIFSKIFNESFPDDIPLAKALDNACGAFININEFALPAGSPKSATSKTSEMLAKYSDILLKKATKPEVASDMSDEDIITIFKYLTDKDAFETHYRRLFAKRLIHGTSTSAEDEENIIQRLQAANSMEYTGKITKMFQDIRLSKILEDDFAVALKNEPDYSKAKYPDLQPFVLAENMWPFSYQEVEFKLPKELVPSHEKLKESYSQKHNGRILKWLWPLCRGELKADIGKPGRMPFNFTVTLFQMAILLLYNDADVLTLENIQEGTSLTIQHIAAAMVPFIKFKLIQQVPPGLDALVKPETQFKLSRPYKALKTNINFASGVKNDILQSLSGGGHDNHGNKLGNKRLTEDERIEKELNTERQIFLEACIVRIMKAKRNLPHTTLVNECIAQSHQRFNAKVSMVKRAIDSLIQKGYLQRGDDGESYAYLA
The assay is described as follows: anti-MYC immunoprecipitation from yeast lysate, immunoblot with anti-Skp1.

B1: Skp1 (other)
chain: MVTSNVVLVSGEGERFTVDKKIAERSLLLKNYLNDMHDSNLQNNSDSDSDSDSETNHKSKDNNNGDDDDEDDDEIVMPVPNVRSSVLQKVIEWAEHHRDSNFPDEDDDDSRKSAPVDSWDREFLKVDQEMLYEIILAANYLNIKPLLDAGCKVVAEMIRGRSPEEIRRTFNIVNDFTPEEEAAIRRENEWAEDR
notes: Endogenous protein in yeast lysates, detected with anti-Skp1 antibodies; also called endogenous Skp1
Turning to B1, the binding result in assay [1] is “no binding”; in assay [2], “binds”.
